# Measured values reported in PubChem BioAssay AID1745845 (National Center for Advancing Translational Sciences (NCATS), 2022).
# The whole screen tested about 360,000 compounds, of which about 2,600 (0.72%) were called active. Inconclusive results, whose numbers are uncertain, are shown with a selection of clear calls. Calls come from the whole dose curve; as a rule, active = well fitted inhibition curve with a large enough effect; inconclusive = small, poorly fitted or top-dose-only effect; inactive = no such curve, though single readings can be large or run the other way. A potency beside an inconclusive call is a rough fit, not a confirmed value.
# Assay: Primary qHTS for Inhibitors of ATXN expression; note: nearly all actives have a fitted effect of over 55% in size
# Settings: HEK-293 ATXN2-luciferase reporter, luminescence, 24 h; activity change, negative = inhibition: at 57 µM (top of the series)
# How it was run: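 qHTS (up to 57 uM final) was run with 24 h compound exposure of reporter cells at 37 °C. Each well was multiplexed: SteadyGlo luminescence measured ATXN2-luciferase expression after a fluorogenic Gly-Phe-AFC viability readout (25 uM final).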
# % is set by controls: 0 for no effect and ±100 for the full control effect; potency is the fitted concentration of half-maximal effect; tags give direction and shape of the fitted curve.
SMILES,Potency,"activity change, negative = inhibition"
COc1ccc(C2c3ccc4ccccc4c3Oc3ncn(CCN4CCOCC4)c(=N)c32)cc1 (stereo unspecified),"inconclusive: 31.6 µM [inhibitor, single point]",–
CCC(C)(C)C(=O)O[C@H]1C[C@@H](C)C=C2C=C[C@H](C)[C@H](CC[C@@H]3C[C@@H](O)CC(=O)O3)[C@H]21,"inconclusive: 39.8 µM [inhibitor, partial curve, poor fit]",–
CN1CCC(=O)N(CCOc2ccccc2)CC1,inactive,–
COc1cc(OC)nc(Nc2nc(C(N)Cc3ccc(Cl)cc3)cs2)n1 (stereo unspecified),active: 31.6 µM,–
O=C(c1ccc2c(c1)OCO2)N1CCN(c2ccc(C(F)(F)F)cn2)CC1,inactive,–
CCc1ccc(C2=NN(c3ccc(S(N)(=O)=O)cc3)C(c3ccc(F)cc3)C2)cc1 (stereo unspecified),"inconclusive: 39.8 µM [inhibitor, single point]",–
CCCN1CCCc2cc(CN)ccc21,"inconclusive: 11.2 µM [inhibitor, partial curve, poor fit]",–
Cc1ccc(Cl)cc1N1CCN(C(=O)c2cn(CC(C)C)c(=O)c3c2c2ccccc2n3C)CC1,"inconclusive: 39.8 µM [inhibitor, single point]",–
O=C1OC(c2ccc(O)cc2)(c2ccccc2O)c2ccccc21 (stereo unspecified),inactive,–
COc1c2c(c(OC)c3ccccc13)[C@]1(OC2)O[C@H](CCO)C[C@H](O)[C@H]1O,inactive,–
CC(Oc1ccc(Cl)cc1Cl)c1ccnc(N)n1 (stereo unspecified),"inconclusive: 2.12 µM [inhibitor, partial curve, poor fit]",–
CN(c1ccccc1)C(CNS(=O)(=O)c1ccccc1)c1ccccc1 (stereo unspecified),"inconclusive: 25.1 µM [inhibitor, single point]",–
CN(NC(=O)Nc1ccc(Cl)cc1)c1ncc(C(F)(F)F)cc1Cl,inactive,–
O=C(/C=C/Sc1ncn[nH]1)c1ccc(Cl)cc1,active: 25.1 µM,–
CCC1(c2ccc(F)cc2)NC(=O)N(CC(=O)N2CCc3ccccc32)C1=O (stereo unspecified),inactive,–
O=C(CSc1ncn[nH]1)Nc1ccc([N+](=O)[O-])cc1Br,"inconclusive: 39.8 µM [inhibitor, single point]",–
N#Cc1ccc(-c2cccnc2)nc1SCc1ccc(Cl)c(Cl)c1,"inconclusive: 25.1 µM [inhibitor, partial curve, poor fit]",–
O=C(Nc1ccncc1)c1cc(-c2cccc(Br)c2)nc2ccccc12,"inconclusive: 17.8 µM [inhibitor, partial curve]",–
CCCC(c1nnnn1CCOC)N1CCN(Cc2ccccc2)CC1 (stereo unspecified),inactive,–
COc1ccc2c(c1)c(=O)c(C(=O)c1ccc(C)cc1)cn2Cc1ccccc1F,"inconclusive: 39.8 µM [inhibitor, single point]",–
CC(C)Cn1c(CN(C)Cc2ccccc2)nc2c1c(=O)n(C)c(=O)n2C,inactive,–
CC(C)C[C@H]1CN=C(Nc2ccccc2)N1CC1CCC(C(C)(C)C)CC1 (stereo partly specified),"inconclusive: 25.1 µM [inhibitor, single point]",–

SMILES,Potency,"activity change, negative = inhibition"
N#C/C(=C\C=C\c1ccccc1[N+](=O)[O-])C(=O)NC1CCCCC1,"inconclusive: 29.9 µM [inhibitor, partial curve, poor fit]",–
CCC/C=C(\CCC)C(NS(=O)(=O)c1cccc2cccnc12)c1ccc(C(=O)OC)cc1 (stereo unspecified),"inconclusive: 39.8 µM [inhibitor, partial curve, poor fit]",–
COc1cc(NC(=O)c2cccc3c(-c4cccnc4)coc23)cc(OC)c1OC,active: 11.2 µM,–
C=CCn1c(COc2cccc(C)c2C)nnc1SCC(=O)N1CCN(c2ccccc2)CC1,"inconclusive: 22.4 µM [inhibitor, single point]",–
COc1ccc(CNC(=O)Nc2nc(C(N)Cc3ccc(C(F)(F)F)cc3)cs2)cc1 (stereo unspecified),"inconclusive: 39.8 µM [inhibitor, single point]",–
Cc1oc(-c2ccccc2F)nc1CS(=O)(=O)CC(=O)NCCN(C)C1CCCCC1,"inconclusive: 33.6 µM [inhibitor, single point]",–
CN(CC(=O)Nc1ccc(Cl)cc1)C(=O)c1ccc(S(=O)(=O)Nc2ccccc2)cc1,"inconclusive: 31.6 µM [inhibitor, single point]",–
COc1ccc(CNC(=S)NC(C)CCc2ccccc2)cc1 (stereo unspecified),"inconclusive: 39.8 µM [inhibitor, partial curve, poor fit]",–
CCCCOc1cccc(C(=O)Nc2ccc3oc(-c4cccnc4)nc3c2)c1,inactive,–
CCc1ccc(C2CC(=O)Nc3c2c(C)nn3-c2nc(C)cc(C)n2)cc1 (stereo unspecified),"inconclusive: 39.8 µM [inhibitor, single point]",–
Cc1cc(C)cc(OCC(=O)Nc2ccccc2N2CCCCC2)c1,inactive,–
NC(Cc1ccc(C(F)(F)F)cc1)c1csc(Nc2ccccn2)n1 (stereo unspecified),inactive,–
CC(Oc1ccccc1F)C(=O)NNC(=O)CC(C)c1ccccc1 (stereo unspecified),inactive,–
CC(=O)Nc1cccc(Oc2nc(-c3ccccn3)nc3ccccc23)c1,"inconclusive: 39.8 µM [inhibitor, single point]",–
O=C(CNC(=O)c1ccc2ccccc2c1)NCc1ccc(F)cc1,"inconclusive: 3.55 µM [inhibitor, partial curve, poor fit]",–
Fc1ccccc1CSc1ncnc2sc3c(c12)CCCC3,"inconclusive: 6.31 µM [inhibitor, single point]",–
Cc1nc2ccccc2c(=O)n1-c1ccc(NC(=O)c2ccc([N+](=O)[O-])cc2)cc1,"inconclusive: 8.91 µM [inhibitor, partial curve]",–
COc1ccc(-c2ccc(C(=O)NCCN3CCOCC3)c3occc23)c(C)c1,"inconclusive: 39.8 µM [inhibitor, single point]",–
O=c1c2ccccc2nc(CSc2nnnn2-c2ccccc2)n1-c1ccccc1,"inconclusive: 10 µM [inhibitor, partial curve]",–
CCc1ccc(Nc2n[n+](-c3ccccc3)c(-c3ccc(OCc4ccccc4)cc3)s2)cc1,"inconclusive: 25.1 µM [inhibitor, partial curve]",–
COc1cc(/C=C2/SC(=O)NC2=O)ccc1Oc1ccc([N+](=O)[O-])cc1[N+](=O)[O-],"inconclusive: 17.8 µM [inhibitor, partial curve, poor fit]",–
O=NNc1nc2ccccc2n1Cc1ccccc1,"inconclusive: 20 µM [inhibitor, partial curve, poor fit]",–

SMILES,Potency,"activity change, negative = inhibition"
O=C(Nc1ccc2oc(Cc3ccc(Cl)cc3)nc2c1)c1cccnc1,"inconclusive: 28.2 µM [inhibitor, single point]",–
O=C(c1ccc(C(F)(F)F)cc1)N1CCC(=O)N([C@H](COCc2ccc(Cl)cc2)Cc2ccccc2)CC1,"inconclusive: 39.8 µM [inhibitor, single point]",–
C#Cc1ccc(NC(=O)C2(C)CCN2C(=O)CC(c2ccccc2)c2ccccc2)cc1 (stereo unspecified),"inconclusive: 28.2 µM [inhibitor, single point]",–
CS(=O)(=O)c1ccc2nc(NC(=O)CCNC(=O)c3ccc(Cl)cc3)sc2c1,inactive,–
CCN1CCN(c2ccc(NC(=O)c3cc4ccccc4cc3OC)cc2C)CC1,"inconclusive: 25.1 µM [inhibitor, single point]",–
O=C(Nc1nc(-c2cc3ccccc3o2)cs1)c1ccc(S(=O)(=O)N2CCCC2)cc1,"inconclusive: 2.82 µM [inhibitor, partial curve, poor fit]",–
CN1C(=O)[C@H](Cc2ccc([N+](=O)[O-])cc2)NC1=S,"inconclusive: 4.47 µM [inhibitor, partial curve]",–
COC(=O)CS(=O)(=O)c1nc2ccccc2nc1N1CCCCC1,"inconclusive: 39.8 µM [inhibitor, single point]",–
CCCCn1c(CN2CCN(c3ccccc3)CC2)nc2c1c(=O)n(C)c(=O)n2C,"inconclusive: 8.91 µM [inhibitor, partial curve, poor fit]",–
CC(C)CCNC(=O)Nc1ccc2c(c1)N(C)C(=O)c1ccccc1S2,"inconclusive: 35.5 µM [inhibitor, single point]",–
O=C(NC(c1ccccc1)c1ccc2ccccc2n1)C1CCN(Cc2ccc(Cl)c(Cl)c2)CC1 (stereo unspecified),"inconclusive: 17.8 µM [inhibitor, partial curve, poor fit]",–
Cc1nn(-c2ccc(F)cc2)c(-n2cccc2)c1C(=O)NCCCN1CCN(c2ccccc2F)CC1,"inconclusive: 28.2 µM [inhibitor, single point]",–
COC(=O)c1ccc(NCc2c(O)ccc(O)c2Br)cc1Cl,"inconclusive: 39.8 µM [inhibitor, single point]",–
Cc1ccc(S(=O)(=O)n2ccc3cccnc32)cc1,inactive,–
CC(C)Cn1c(-c2csc3ccccc23)n[nH]c1=S,inactive,–
COc1cccc(OCC(=O)Nc2cc(Cl)ccc2Oc2ccccc2)c1,active: 28.2 µM,–
O=C(CSc1nnc(-c2ccncc2)n1Cc1ccco1)Nc1ccccc1Cl,inactive,–
COc1ccc(-c2[nH]ncc2N=Nc2ccccc2)cc1,"inconclusive: 39.8 µM [inhibitor, partial curve, poor fit]",–
COc1ccc(-c2cc3nc(-c4ccc(Br)cc4)cc(C(F)(F)F)n3n2)cc1,inactive,–
CC(=O)N/N=C/C1=CCC2CC1C2(C)C (stereo unspecified),–,inactive: -8.8% [at 11.3 µM]
Cc1c(NC(=O)c2cc(-c3ccc(O)cc3)on2)c(=O)n(-c2ccccc2)n1C,"inconclusive: 17.8 µM [inhibitor, partial curve, poor fit]",–
O=C(O)c1ccc(N/N=C/c2ccc(OC(=O)c3cccc(Cl)c3)cc2)cc1,active: 5.01 µM,–
